Laboratory results published in PubChem BioAssay AID1963576 (National Center for Advancing Translational Sciences (NCATS), 2024).
In all, about 46,000 compounds went through this assay and about 60 (0.1%) were called active. About 3% were inconclusive and are not listed. Calls come from the whole dose curve; as a rule, active = well fitted inhibition curve with a large enough effect; inconclusive = small, poorly fitted or top-dose-only effect; inactive = no such curve, though single readings can be large or run the other way. The list shows a part of the results.

Assay: Primary qHTS assay for Inhibitors of ovarian cancer metastasis using an organotypic tumor microenvironment (TME) model.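 For activity change, negative = inhibition: plate controls were DMSO wells for no effect and tomatine positive control wells for full effect.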 Note: nearly all actives have a fitted effect of over 65% in size.
Settings: SKOV3ip1-GFP adhesion/invasion on 3D omental model, fluorescence; series mostly up to 45.8 µM; activity change, negative = inhibition: at the top concentration
In short: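 Adhesion/invasion was scored as fixed GFP-labeled SKOV3ip1 cell counts (488/509 nm), normalized to DMSO and tomatine controls. Cancer cells in serum-free medium, with four compound doses (0.36-46 umol/L), sat 2 hr at RT then 16 hr at 37 C on a 48 hr fibroblast/mesothelial/ECM culture.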

outcome, inactive:
Cc1ccc(NC(=O)Cn2ncn3c(cc4ccccc43)c2=O)c(C)c1
CC(NC(=O)c1ccc2c(c1)N(Cc1ccc(Cl)cc1)C(=O)c1ccccc1S2(=O)=O)c1ccccc1 (centres undefined)
O=S(=O)(NCc1ccccc1)c1ccc(-c2cnc(C3CC3)o2)cc1
CCOC(=O)c1sc(NC(=O)c2nc3ncccn3n2)c(C(=O)OC)c1C
CCN1C(C(=O)c2ccccc2)=C(OC(=O)C(C)C)c2ccccc2S1(=O)=O
CCCC(O)c1nc2ccccc2n1CCCCOc1ccc(OC)cc1 (centres undefined)
CCOC(=O)c1c(C)[nH]c(C)c1S(=O)(=O)N1CCC(C(=O)NCc2ccc(C)cc2)CC1
CCn1c2c(c(=O)n3ncc(C(=O)Nc4cccc(Cl)c4C)c13)CN(Cc1ccc(OC)cc1)CC2
COc1ccccc1C(=O)NC1(C(F)(F)F)C(=O)Nc2c1c(=O)[nH]c(=O)n2CCc1ccccc1 (centres undefined)
Cc1ccc(S(=O)(=O)C(CNC(=O)C(=O)NCCc2ccccc2)c2ccco2)cc1 (centres undefined)
CCOc1ccc(CNC(=O)C2CCCN(S(=O)(=O)c3ccc4c(c3)CCCC(=O)N4)C2)cc1 (centres undefined)
CCOC(=O)C1=C(CN2CCN(CC)CC2)NC(=O)NC1c1ccc(Cl)cc1 (centres undefined)
CCOC(=O)c1scc(-c2ccc(C)cc2)c1S(=O)(=O)Nc1cc(Cl)ccc1OC

Activity change, negative = inhibition, inactive:
Cc1cc2oc(C(=O)Nc3sc4c(c3C(=O)NCC3CCCO3)CCC4)cc(=O)c2cc1C (centres undefined) 2.14%
O=C(Nc1ccc2oc(-c3cccnc3)nc2c1)c1ccc(-c2ccc(Cl)cc2)o1 7.8%
CCc1ccc(N2C(=O)CC(c3cc(OC)ccc3OC)C3=C2COC3=O)cc1 (centres undefined) -13%
COc1ccc(CNC(=O)CSc2nc3ccsc3c(=O)n2Cc2ccccc2Cl)cc1 -10.6%
CC(=O)Nc1ccc(O)cc1 -7.57%
COc1ccccc1CNC(=O)Cc1csc2nc(-c3ccc(Cl)cc3)cn12 -9.88%
CCOc1ccc(CCNC(=O)Cn2nc(CC)n3c(cc4sc(CC)cc43)c2=O)cc1OCC -6.16%
CCCCCn1c(=N)c(S(=O)(=O)c2ccccc2)cc2c(=O)n3ccccc3nc21 31.6%
CCOc1cc2sc(N3CCC(C(=O)Nc4ccc(C)cc4)CC3)nc2cc1Br -4.91%
CCc1ccc(CSc2nc(-c3ccc(OC)cc3)nc3c2Cc2c(CO)cnc(C)c2O3)cc1 3.82%
COc1ccc(CNC(=O)CN(c2ccccc2OC)S(=O)(=O)c2ccc(C)cc2)cc1 -19.3%
CCn1c(=O)c2cc(C(=O)NC3CCCCCC3)sc2c2ccccc21 -6.72%
O=c1oc2c(CN3CCOCC3)c(O)ccc2cc1-c1ccc(Cl)cc1 -2.23%
CCc1ccccc1NC(=O)Cn1c(=O)nc(-c2ccccc2)c2ccccc21 3.73%
O=C(CCNS(=O)(=O)c1ccc2c(c1)CCN2C(=O)C1CC1)N1CCN(c2ccc(F)cc2)CC1 -2.99%
COc1ccc(CCNC(=O)CCCCn2c(=O)c3ccccc3n(CC(=O)Nc3ccccc3C)c2=O)cc1OC 5.36%
COc1ccc(S(=O)(=O)c2cn(Cc3ccccc3)c3cc(N4CCCC4)c(F)cc3c2=O)cc1 5.05%
Cc1cc(C)cc(NC(=O)CSc2nncn3c2cc2occc23)c1 16.5%
C=C(C)CSc1nc2sc3c(c2c(=O)n1CCCC)CCCC3 -3.76%
COc1ccc(CNC(=O)C2CCN(c3nc4ccc(C)cc4[nH]3)CC2)cc1 -4.88%
Cc1ccc(C)c(CN2CCCN(Cc3cc(C)ccc3C)S2(=O)=O)c1 1.77%
COc1ccc(CNC(=O)c2nnn(CC(=O)Nc3cc(C)cc(C)c3)c2N)cc1 -6.46%
O=C(Nc1ccc(N2CCN(CCOc3ccc(Cl)cc3)CC2)c(C(=O)O)c1)c1ccc(F)cc1 -6.65%
CCCn1c(SCC(O)c2cccc(OC)c2)nc2ccccc21 (centres undefined) -15.9%
CCc1nc2ccccc2n1CCCCOc1ccccc1C -16.3%
COC(=O)c1ccc(-n2c(/C=C\c3cccc(Br)c3)nc3ccccc3c2=O)cc1 -14.2%
Cc1nn(Cc2ccc(Cl)cc2)c(C)c1NC(=O)c1noc2c1CCc1ccccc1-2 -0.987%
CC(C)Oc1ccc(CNC(=O)Cn2c(=O)oc3ccccc32)cc1 -4.24%
CC(C)CCNC(=O)CSc1c2c(nc3ccc(Cl)cc13)CCCC2 -3.35%
Cc1ccc(OCc2nc(-c3ccc(C(=O)N4CCN(c5ccc(Cl)cc5)CC4)cc3)oc2C)cc1 -14.7%
CCCn1c(=O)sc2cc(NC(=O)c3ccccc3OCC)ccc21 6.72%
CCCCCCn1c(CNC(=O)c2ccccc2)nc2ccccc21 -9.53%
Cc1cc(C(=O)NCc2ccccc2C)c2c(C)nn(-c3cccc(F)c3)c2n1 -12.5%
COc1cccc(CNC(=O)Cn2cc3c(n2)-c2c(oc(C(=O)N4CCCC4)c2C)CC3)c1 8.75%
CCc1ccc(NC(=O)Cn2ncc3c4ccccc4n(C)c3c2=O)cc1 6.14%
COc1ccc2c(c1)CCc1c(C(=O)Nc3ccccc3C(F)(F)F)noc1-2 1.36%
O=C(CC1N=C2c3ccccc3N=C(SCc3ccc(F)cc3)N2C1=O)NCc1cccs1 (centres undefined) -0.284%
CC[C@H]1OC(=O)[C@H](C)[C@@H](O[C@H]2C[C@@](C)(OC)[C@@H](O)[C@H](C)O2)[C@H](C)[C@@H](O[C@@H]2O[C@H](C)C[C@H](N(C)C)[C@@H]2O)[C@](C)(OC)C[C@@H](C)C(=O)[C@H](C)[C@@H](O)[C@]1(C)O -2.42%
CCOC(=O)c1c(S(=O)(=O)NCC(=O)Nc2cccc(CC)c2)c(C)n(C)c1C -2.09%
CCOc1ccc(NC(=O)c2cc(S(=O)(=O)NC3CCCC3)ccc2F)cc1 -4.83%
COC(=O)Cn1c(CN2CCN(c3ccc(OC)cc3)CC2)nc2c1c(=O)[nH]c(=O)n2C -7.92%
CCc1ccc(NC(=O)CSc2nc(-c3ccccc3)c(C#N)c(=O)[nH]2)cc1 -4.74%
CCN(CC)C(=O)c1sc2c(c1C)c(=O)n(-c1ccccc1)c(=O)n2Cc1cc(=O)n2ccccc2n1 4.93%
Clc1cccc(-c2csc(-c3nc(-c4ccc(Br)s4)cs3)n2)c1 11.9%
CCCCn1cc(S(=O)(=O)c2ccc(OC)cc2)c(=O)c2cc(F)c(F)cc21 -7.38%
COc1ccc(-n2c(=O)c3c(c4cc(OC)ccc4n3C)n(Cc3ccc(F)cc3Cl)c2=O)cc1 4.13%
